From PubChem BioAssay AID2060328 (Molecular Pharmacology Branch, DTP, NCI, 2025)
Some entries of the source have several records that differ or are many. The list is limited to them. An entry can have further records. Values that stand side by side repeat one measurement (runs, samples, wells, individuals or studies).

System: MDA-MB-231 multicell spheroids, viability (%T/C)
Experiment: Anticancer human tumor MDA-MB-231 cell line growth inhibition [IpAb];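 further: viability read after seven days of drug exposure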
Settings: compound alone; run of 06/01/2021
Source text: Combinatorial screen of targeted agents with ipatasertib and abemaciclib in multi-cell type tumor spheroids
A high-throughput screen of multi-cell type tumor spheroids was designed to identify active combinations of targeted small molecules and ipatasertib or abemaciclib. Complex spheroids include a stromal component modeled by human endothelial cells (HUVEC) and fibroblasts modeled by human mesenchymal stem cells (MSCs). The concentration ranges selected for each drug and investigational agent were based upon clinically achievable concentrations if the clinical Cmax of the agent was known.
Compounds. […] If the clinical Cmax for an agent had not been determined, the highest concentration tested was 10 microM.
NCI60 Cell Culture. […] The optimal seeding densities for each of the cell lines at each time point assessed were determined prior to performing the concentration response studies. […]

CCN1CCN(Cc2ccc(Nc3ncc(F)c(-c4cc(F)c5nc(C)n(C(C)C)c5c4)n3)nc2)CC1
IC50: 263 nM, 354 nM, 526 nM, 247 nM, 302 nM, 205 nM, 376 nM, 228 nM, 226 nM, > 1 µM, 285 nM
